The record followed here is ChEMBL document CHEMBL4888484, “Replenishing the malaria drug discovery pipeline: Screening and hit evaluation of the MMV Hit Generation Library 1 (HGL1) against asexual blood stage Plasmodium falciparum ,using a nano luciferase reporter read-out” (2022).

The % Inhibition is the drop in the measured response relative to a control, in per cent.

Out of some 4,800 compounds screened, about 410 (8.5%) showed an effect of 50% or more. This is one part of the list.

The test system of the assay is Plasmodium falciparum. Put plainly: Confirmatory screen in NF54 pLDH assay, in single point, at 2uM, 72h. The format is functional, Erythrocyte. As to conditions: timepoint 72 hour.
As for `COc1ccc(-n2nc(C)c3c2NC(=O)C[C@@H]3c2ccc3c(c2)OCO3)cc1`, the “% Inhibition” value is -10%.

For `Cc1nn(C)c(Cl)c1CNC[C@@H](c1ccsc1)N(C)C`, the “% Inhibition” value was 9%. In the case of `COc1ccc(-c2nc3nnnn3cc2C)cc1OC`, the “% Inhibition” value amounted to 12%. As for `COCCN(Cc1c(-c2ccccc2)noc1N1CCN(C)CC1)C(=O)c1ccc(C)cc1`, the figure is 12%. In the case of `CCN1c2cc(C(=O)NCc3ccncc3)ccc2C(=O)N2CCCC[C@H]21` it was 5%; in that of `CCc1nnc(NC(=O)NCc2c[nH]nn2)s1`, -6%.

Consider `Cc1ccc(Cn2c(=O)c(C(=O)NCc3ccc4c(c3)OCO4)nn(-c3ccc(C(C)C)cc3)c2=O)cc1`, for which the “% Inhibition” value was 52%. As for `CCS(=O)(=O)N1CCN(c2nc(Cc3ccc(C)cc3)nc3c2c(C)nn3-c2ccccc2)CC1`, the figure is -27%; as for `Cc1cnc(C2CC2)n1CCNC(=O)C1(C)CCCCC1`, 1%. Turning to `Cc1nn(C)c2c(N3CCc4ccccc4C3)nc(C3CC3)nc12`, the “% Inhibition” value is -7%. In the case of `N#C[C@@H](C(=O)NCc1cccnc1)c1nc(-c2ccccc2)cs1` it was 5%. `COc1ccc(C(=O)NCN2CCN(c3ccc(F)cc3)CC2)cc1OC`: the “% Inhibition” value is given as -4%.

`C[C@@H](CCNS(=O)(=O)c1c(Cl)cc(F)cc1Br)CC(=O)O`: the “% Inhibition” value stood at 8%. In the case of `Cc1cc(-c2cc(O)cc(CC[C@H]3CCCCN3)c2)ccn1` it was 91%; in that of `COc1ccc([C@@H]2COc3ccccc3C(=O)N2)cc1`, 1%.

`CCC1Cn2c(C(=O)NC(C)Cc3ccco3)cc3cccc(c32)O1` (stereo not drawn): the “% Inhibition” value is on record as -13%. As to `CCOc1cc(CNCCOC)ccc1O`, the “% Inhibition” value came out at 11%.

Turning to `COC[C@@H]1CCCN1c1ccc2c(c1)CNCC(=O)N1CC[C@@H](CC(=O)NCCN3CCOCC3)[C@@H](/C=C/CO2)C1`, the “% Inhibition” value is listed as -11%. As to `O=C(Nc1ccc(N2CCOCC2)c(F)c1)OCc1ccccc1`, the “% Inhibition” value is on record as 2%.

Turning to `CCOCCC1(CNC(=O)c2cc(C)n[nH]2)CCC1`, the “% Inhibition” value was found to be 2%. As for `CCc1cccc(NC(=O)Cn2ccc3ccc(-c4nnc(C)o4)cc32)c1`, the figure is 89%; as for `COC(=O)CN(c1ccccc1)S(=O)(=O)c1ccc2nncn2c1`, 11%. In the case of `Cn1nncc1C(=O)Nc1ccc(Br)c(C(F)(F)F)c1` it was -1%. Consider `CN(C(=O)c1ccc(F)cc1)[C@H]1CCOC1`, for which the “% Inhibition” value is -10%. Consider `CC(C)CCC(=O)NCC(=O)Nc1ccc(C#N)cc1`, for which the “% Inhibition” value is listed as -15%.

Consider `COc1cccc(NC(=O)[C@H](Cc2ccccc2)NC(=O)c2cccnc2)c1`, for which the “% Inhibition” value was -20%. As for `O=C(Nc1cccnc1)c1ccc(-c2ccc(Cl)c(Cl)c2)o1`, the “% Inhibition” value was 89%.

On to `COC(=O)[C@H](C#N)c1ccc(C#N)cn1`, for which the “% Inhibition” value came out at 6%. As for `C[C@H](NC(c1ccccc1)c1ccccc1)c1nnc(-c2cccs2)o1`, the figure is 7%; as for `CC(C)Cn1cc2c(C(F)(F)F)cc(=O)n(CCC(=O)Nc3cc(F)ccc3F)c2n1`, 7%; as for `O=C(CO[C@H]1CCCc2c[nH]nc21)NC(C1CC1)C1CC1`, -6%.

In the case of `CCOc1ccc(N(Cc2ccccc2F)S(=O)(=O)c2ccc3nnc(C)n3c2)cc1`, the “% Inhibition” value is given as -7%. As to `CN1CCN(C(=O)[C@H](C(=O)c2cccc(Cl)c2)n2ccccc2=O)CC1`, the “% Inhibition” value was -13%.

Turning to `COc1cccc(Cn2c(=O)c3sccc3n(CC(=O)NCc3ccc(F)cc3F)c2=O)c1`, the “% Inhibition” value was 13%. In the case of `CCOC(=O)C1=CS/C(=C2/C(=S)C(C)(C)Nc3c(OCC)cccc32)S1` it was -7%. As to `COc1cccc(CN2CCN(c3ccc(F)cc3)C2=O)c1`, the “% Inhibition” value is on record as -3%. As for `COc1ccc(Cl)cc1C(=O)Nc1cc(C2CC2)nn1-c1nc(C)cc(=O)[nH]1`, the figure is 72%; as for `Cc1c(NC(=O)c2n[nH]cc2Br)c(=O)n(-c2ccccc2)n1C`, 7%; as for `COc1cccc(-c2cn(C)c3c(=O)n(CC(=O)Nc4ccc(C(F)(F)F)cc4)cnc23)c1`, 9%. As for `Cc1[nH]nc(C(F)(F)F)c1NS(=O)(=O)c1cccs1`, the figure is 5%. As for `Cc1cc(=O)n(CC(=O)Nc2cc(C)on2)c(-c2ccc(F)cc2)n1`, the figure is 2%; as for `c1ccc2oc(N3CCCCCCC3)nc2c1`, 3%.

`COc1ccc(N2CCN(Cc3cc(-c4ccc(Cl)cc4)no3)CC2)cc1`: the “% Inhibition” value was -19%. In the case of `CCC(C)(C)c1ccc(OCC(=O)Nc2cccc(NC(=O)C3=NN(c4c(Cl)cc(Cl)cc4Cl)C(=O)C3)c2)c(C(C)(C)CC)c1` it was -13%; in that of `COC(=O)C[C@H](NC(=O)c1ccc2ccccc2n1)C1CC1`, -18%; in that of `COc1ccc(-c2c(-c3cccc(OC)c3)[nH]c3c2c(=O)[nH]c(=O)n3C)cc1`, 97%.

In the case of `Cc1nn2cnnc2c(C)c1C/C=C/c1ccccc1`, the “% Inhibition” value is given as 3%. As for `Cc1cc(F)ccc1CS(=O)(=O)N1CCC(CN2CCOCC2)CC1`, the figure is 0%. On to `Cc1n[nH]c([C@H]2CN(C(=O)OCC(F)(F)F)C[C@@H]2C2CC2)n1`, for which the “% Inhibition” value was 8%. As for `Cc1cc(Cl)cc2c1NC(=O)C21NC(CCC(=O)O)[C@H]2C(=O)N(Cc3ccccc3Cl)C(=O)[C@H]21` (stereo partly drawn), the figure is -22%. As for `CCN(CC)C(=O)c1cc(C)n(-c2ccc3c(c2)OCCO3)c1C`, the figure is -3%.

Turning to `N=C(N)NCc1ccc(COCc2ccccc2)cc1`, the “% Inhibition” value is recorded as 17%. In the case of `Cn1nccc1C(=O)N(C1CCCCC1)C1CCCCC1` it was -2%.

`Cc1cnn(Cc2cc(C(=O)N(C)Cc3nc4ccccc4n3C)no2)c1`: the “% Inhibition” value is recorded as 7%. As for `O=C(OC1CCCC1)C1CCCCC1C(=O)N1CCc2ccccc21` (stereo not drawn), the figure is 10%; as for `Cc1nn(-c2ccccc2)c2nc(Cc3ccccc3)nc(N3CCCN(C(=O)NC4CCCCC4)CC3)c12`, 8%; as for `O=C(CN1CCC2(CC1)NC(c1ccccn1)=NO2)N1CCN(c2ccc(F)cc2)CC1`, 1%. As for `O=C1CC(c2ccccc2)N2N=C(N3C(=O)C4CC=CCC4C3=O)NC2=N1` (stereo not drawn), the figure is -3%.

Regarding `CN(CCOc1ccc(Cl)cc1Cl)[C@H]1CCS(=O)(=O)C1`, the “% Inhibition” value is 5%. As for `C[C@H]1CN(Cc2ccccc2)CC2(CCN(C(=O)N(C)C)CC2)O1`, the figure is 10%; as for `CS(=O)(=O)N1CC[C@H](N(C(=O)NCCc2ccccc2)C2CCOCC2)C1`, -10%; as for `Cc1cc(C(=O)NCCCn2cccn2)nc(N2CCOCC2)n1`, 5%. In the case of `CCN1C(=O)c2ccccc2N2C(=O)CC[C@@]12C(=O)Nc1cccc(OC)c1` it was 96%.
